Laboratory results from PubChem BioAssay AID662 (National Center for Advancing Translational Sciences (NCATS), 2007).
In all, about 71,000 compounds went through this assay and about 1,800 (2.5%) were called active. Inconclusive means that the source gave no clear call. Such entries were picked first, then a sample of the others. Calls follow the shape of the dose curve; as a rule, active = well fitted activation curve with a large enough effect in the signal ratio, with a control signal flat (not every such curve was filed as active); inconclusive = small, poorly fitted or top-dose-only effect, or effect the other way, or a change in a side signal; inactive = flat fitted curve, though single readings scatter; the % refers to the signal ratio. Potencies of inconclusive entries are doubtful fits and often do not repeat.

Assay: Cell signaling CRE-BLA (Fsk stim); as to activity change, negative = inhibition: % of control where 0% means no effect
Conditions: CHO CRE-bla reporter (cAMP response element driving beta-lactamase), forskolin EC10, beta-lactamase ratio; activity change, negative = inhibition: at 38.2 µM (top of the series) unless noted
Summary of the method: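 Modulation of forskolin signalling: compounds in titration series added with EC10 NKH 477 to CHO cells carrying a CRE-driven beta-lactamase reporter, 3 h, 37C. CCF4 FRET ratio (460/530 nm, ex 405 nm) gives %activity and AC50.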
Potency is read from the fitted curve at half-maximal effect; tags tell the direction and shape of the fitted curve.

SMILES | activity change, negative = inhibition | Potency
Cc1cccc(-c2nsc(SCC(=O)N3CCCC3)n2)c1 | inconclusive: 27.3% | –
Cc1nc(SCN2C(=O)c3ccccc3C2=O)n[nH]1 | – | inconclusive: 0.02 µM [rising, full curve, poor fit]
COC(=O)c1ccccc1NC(=O)CSc1nnc(COc2cccc(OC)c2)n1C | inactive: 1.95% | –
Clc1ccccc1-c1nccc(NCc2cccs2)n1 | inconclusive: -0.676% | –
Fc1cccc(CSc2ncnc3c2ncn3[C@H]2CCCS2)c1 | – | inconclusive: 3.16 µM [rising, partial curve]
c1ccc(C(c2ccccc2)N2CCC3(CCNCC3)CC2)cc1 | inactive: 2.68% | –
NC(=O)CSc1nnc(-c2cc3ccccc3o2)n1Cc1ccccc1 | inactive: -8.61% | –
Cc1ccccc1Cc1c(C)nc2nc(SCC(=O)NCc3ccco3)nn2c1C | inactive: -3.34% | –
CCOc1ccc2nc(NC(=O)C(CC)Sc3nc(C)cc(=O)[nH]3)sc2c1 (stereo unspecified) | inconclusive: 21.5% | –
Cc1cc(C(=O)OCC(=O)N2CCOCC2)c2ccccc2n1 | inactive: 12.5% | –
Cn1c(=O)cc(OCCCC(=O)N2CCN(Cc3ccc4c(c3)OCO4)CC2)c2ccccc21 | – | inconclusive: 12.6 µM [rising, single point]
Cn1c(=O)c(-c2cccs2)nc2cnc(N3CCNCC3)nc21 | – | inconclusive: 5.01 µM [rising, partial curve]
O=C(O[C@@H](C(=O)O)[C@@H](OC(=O)c1ccccc1)C(=O)O)c1ccccc1 | inactive: -16.9% | –
Cc1nc2ncnn2c(C)c1CCC(=O)N1CCc2ccccc2C1 | inactive: 10.3% | –
CCOC(=O)Nc1ccccc1N1C(=O)c2ccccc2C1=O | inactive: 4.56% | –
CC1=C(C(=O)Nc2ccccc2)C(c2cccs2)C(C#N)=C(SCC#N)N1 (stereo unspecified) | inconclusive: -2.46% | –
CCOC(=O)c1nn(-c2ccccc2C)c(=O)c(C#N)c1C | inactive: 26.9% | –
NC(=O)C1(N2CCCCC2)CCN(Cc2nc3ccccc3c(=O)[nH]2)CC1 | inactive: -6.69% | –
CCOc1cc2c3c(c1)C1(C(=O)N3C(C)(C)C=C2C)C(C#N)=C(N)Oc2cc(O)ccc21 (stereo unspecified) | – | inconclusive: 25.1 µM [rising, single point]
Cc1cc(=O)c2ccccc2[nH]1 | inconclusive: -17.5% | –
COCCNC(=O)C(c1ccc(C)o1)N(C(=O)c1snc(C(N)=O)c1N)c1ccc(C)c(C)c1 (stereo unspecified) | inactive: 1.91% | –

SMILES | activity change, negative = inhibition | Potency
Oc1cc2c(cc1O)[C@H](c1ccccc1)CNCC2 | inconclusive: -31.6% | –
COCCNc1nc(-n2nc(C)cc2C)nc2sc3c(c12)CCCC3 | – | active: 12.6 µM
COc1cc(-c2noc(CCC(N)=O)n2)cc(OC)c1OC | – | inconclusive: 12.6 µM [rising, partial curve]
Cc1ccc(C)c2[nH]c(=O)c(CCNC(=O)CC(C)C)cc12 | – | inconclusive: 1.26 µM [rising, full curve, poor fit]
COC(=O)c1[nH]c2ccc(C)cc2c1NC(=O)CN1CCc2cc(OC)c(OC)cc2C1 | – | inconclusive: 15.8 µM [rising, single point]
N#CCCCSc1nnc(CSc2nc3ccccc3s2)n1-c1ccccc1 | – | inconclusive: 5.01 µM [rising, full curve, poor fit]
COc1ccc2[nH]c(=O)c(CN(Cc3ccc(C)cc3)Cc3nnnn3CC3CCCO3)cc2c1 (stereo unspecified) | inconclusive: 4.2% | –
COc1cccc(N(C(=O)c2cccs2)c2nc3ccccc3s2)c1 | – | active: 3.16 µM
COC(=O)c1c(NC(=O)c2cccs2)sc2c1CCC(C)C2 (stereo unspecified) | inactive: 0.385% | –
Cc1noc(C)c1-c1cncnc1N(C)Cc1ccco1 | inactive: 1.35% | –
Cn1c(=O)[nH]c(=O)c2c1nc(CN1CCN(c3cccc(Cl)c3)CC1)n2CCN1CCOCC1 | inactive: -6.73% | –
O=C(O)[C@@H](c1ccccc1)[C@@H](C(=O)O)c1ccccc1 | inactive: 8.38% [at 7.6 µM] | –
CCOC(=O)N1CCN(C(=O)CC(C(=O)N2CCc3ccccc32)n2ccnc2)CC1 (stereo unspecified) | inactive: -5.6% | –
CCOC(=O)Cn1c(CCC(=O)O)ccc1-c1ccc(F)cc1 | inactive: -4.94% | –
CCOC(=O)C(NC(C)=O)(NS(=O)(=O)c1ccccc1)C(F)(F)F (stereo unspecified) | inconclusive: -19.5% | –
COc1cc(NC(=O)C(C)Oc2ccccc2)c(C(=O)O)cc1OC (stereo unspecified) | – | inconclusive: 10 µM [rising, partial curve, poor fit]
CCOC(=O)c1[nH]c2cc(OC)c(OC)cc2c1NC(=O)CN1CCN(C)CC1 | inactive: 10.4% | –
COc1ccc(Cl)cc1C(=O)Nc1nnn(C)n1 | inactive: 9.83% | –
CC(C)(C)c1cc(CN2CCCC(O)C2)c(O)c(C(C)(C)C)c1 (stereo unspecified) | inconclusive: -26.5% [at 7.6 µM] | –
CCCc1cc(C(=O)N2CCN(c3ccccc3C)CC2)cs1 | – | inconclusive: 31.6 µM [falling, single point]
